Laboratory results taken from paper PMC2844433.
These are yes or no findings as the source states them, for the method shown. Binding seen in cells or lysates may run through a third protein. Some binding calls cover weakened binding; strength is not graded here. Tags and fused reporters may be left off the sequences shown.

Protein sequences, listed by entry. Tags and fused reporters are not part of them.
UniProt P06748: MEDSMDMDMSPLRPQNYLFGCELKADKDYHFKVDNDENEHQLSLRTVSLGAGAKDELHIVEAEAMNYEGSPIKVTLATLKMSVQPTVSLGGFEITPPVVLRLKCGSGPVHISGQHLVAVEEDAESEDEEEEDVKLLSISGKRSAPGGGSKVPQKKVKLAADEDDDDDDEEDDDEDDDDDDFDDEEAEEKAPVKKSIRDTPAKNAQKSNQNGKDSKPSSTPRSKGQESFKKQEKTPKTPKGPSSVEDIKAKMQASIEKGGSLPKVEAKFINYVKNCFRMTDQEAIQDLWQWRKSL

Biological target: Flag-NPM/B23 (UniProt P06748)
Assay: co-IP; 293T cells transfected with Flag-NPM/B23 and Myc-Plk2 KD or with Myc-Plk2 KD alone; anti-Flag or anti-Myc immunoprecipitation; lysis buffer 40 mM Tris-HCl pH 7.5, 0.5% NP-40, 150 mM NaCl; Western blot

binding: binds
B1: Myc-Plk2 KD (enzyme, UniProt Q9NYY3 1-685)
chain: MELLRTITYQPAASTKMCEQALGKGCGADSKKKRPPQPPEESQPPQSQAQVPPAAPHHHHHHSHSGPEISRIIVDPTTGKRYCRGKVLGKGGFAKCYEMTDLTNNKVYAAKIIPHSRVAKPHQREKIDKEIELHRILHHKHVVQFYHYFEDKENIYILLEYCSRRSMAHILKARKVLTEPEVRYYLRQIVSGLKYLHEQEILHRDLKLGAFFINEAMELKVGDFGLAARLEPLEHRRRTICGTPNYLSPEVLNKQGHGCESDIWALGCVMYTMLLGRPPFETTNLKETYRCIREARYTMPSSLLAPAKHLIASMLSKNPEDRPSLDDIIRHDFFLQGFTPDRLSSSCCHTVPDFHLSSPAKNFFKKAAAALFGGKKDKARYIDTHNRVSKEDEDIYKLRHDLKKTSITQQPSKHRTDEELQPPTTTVARSGTPAVENKQQIGDAIRMIVRGTLGSCSSSSECLEDSTMGSVADTVARVLRGCLENMPEADCIPKEQLSTSFQWVTKWVDYSNKYGFGYQLSDHTVGVLFNNGAHMSLLPDKKTVHYYAELGQCSVFPATDAPEQFISQVTVLKYFSHYMEENLMDGGDLPSVTDIRRPRLYLLQWLKSDKALMMLFNDGTFQVNFYHDHTKIIICSQNEEYLLTYINEDRISTTFRLTTLLMSGCSSELKNRMEYALNMLLQRCN
